Measurements reported in US20240254117A1, “PYRIMIDO-HETEROCYCLIC COMPOUNDS, AND PREPARATION METHOD THEREFOR AND USE THEREOF” (SHANGHAI RINGENE BIOPHARMA CO., LTD., priority 2020, published 2024).

Target: T1, KRAS^G12C/SOS1 (Homo sapiens, UniProt Q07889)
T1 sequence (Q07889 1-1333): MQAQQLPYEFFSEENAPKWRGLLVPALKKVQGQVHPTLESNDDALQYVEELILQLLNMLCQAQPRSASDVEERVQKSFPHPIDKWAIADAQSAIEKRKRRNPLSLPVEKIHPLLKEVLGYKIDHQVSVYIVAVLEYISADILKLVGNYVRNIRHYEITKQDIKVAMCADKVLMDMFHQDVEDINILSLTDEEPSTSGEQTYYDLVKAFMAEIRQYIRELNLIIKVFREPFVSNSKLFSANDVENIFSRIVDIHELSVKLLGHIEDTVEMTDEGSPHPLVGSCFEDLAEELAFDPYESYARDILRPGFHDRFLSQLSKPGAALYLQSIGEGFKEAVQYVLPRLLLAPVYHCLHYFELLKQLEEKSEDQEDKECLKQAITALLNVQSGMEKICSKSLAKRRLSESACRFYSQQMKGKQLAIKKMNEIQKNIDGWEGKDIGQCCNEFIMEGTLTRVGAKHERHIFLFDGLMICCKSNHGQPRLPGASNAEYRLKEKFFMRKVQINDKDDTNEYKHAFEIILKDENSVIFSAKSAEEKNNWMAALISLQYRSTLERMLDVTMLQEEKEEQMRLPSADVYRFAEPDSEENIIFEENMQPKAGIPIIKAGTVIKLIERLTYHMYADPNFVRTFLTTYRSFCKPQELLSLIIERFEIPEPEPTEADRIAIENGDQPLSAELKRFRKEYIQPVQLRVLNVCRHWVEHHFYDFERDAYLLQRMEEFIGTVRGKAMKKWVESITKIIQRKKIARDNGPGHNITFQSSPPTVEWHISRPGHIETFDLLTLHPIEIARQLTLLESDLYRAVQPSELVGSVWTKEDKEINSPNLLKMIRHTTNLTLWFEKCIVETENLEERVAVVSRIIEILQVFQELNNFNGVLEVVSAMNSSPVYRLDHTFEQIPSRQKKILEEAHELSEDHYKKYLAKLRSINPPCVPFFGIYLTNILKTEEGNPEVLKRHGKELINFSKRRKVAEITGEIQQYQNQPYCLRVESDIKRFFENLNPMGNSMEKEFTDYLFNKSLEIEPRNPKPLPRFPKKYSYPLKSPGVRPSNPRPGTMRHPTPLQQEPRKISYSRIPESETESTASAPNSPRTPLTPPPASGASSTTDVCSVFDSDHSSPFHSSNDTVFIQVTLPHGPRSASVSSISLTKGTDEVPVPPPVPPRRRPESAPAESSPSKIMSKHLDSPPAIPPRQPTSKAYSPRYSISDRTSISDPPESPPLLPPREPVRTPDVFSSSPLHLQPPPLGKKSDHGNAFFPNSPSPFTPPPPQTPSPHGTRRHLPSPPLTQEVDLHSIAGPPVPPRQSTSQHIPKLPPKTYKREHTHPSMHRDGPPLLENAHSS
Assay: biochemical

Row | Compound | IC50 [nM]
1 | Cc1nc(N[C@H](C)c2ccc(-c3ccccc3CN3CCCC3)s2)c2cc(N3CCN(C4CCCC4)CC3)c(=O)n(C)c2n1 [Example 51] | < 50
2 | Cc1nc(N[C@H](C)c2ccc(-c3ccccc3CN3CCCC3)s2)c2cc(N3CC4CCC(C3)N4)c(=O)n(C)c2n1 [Example 52] | < 50
3 | Cc1nc(N[C@H](C)c2ccc(-c3ccccc3CN3CCCC3)s2)c2cc(N3CC4CCC(C3)N4C)c(=O)n(C)c2n1 [Example 53] | < 50
4 | Cc1nc(N[C@H](C)c2ccc(-c3ccccc3CN3CCCC3)s2)c2cc(N3CC4CC(C3)N4)c(=O)n(C)c2n1 [Example 54] | < 50
5 | Cc1nc(N[C@H](C)c2ccc(-c3ccccc3CN3CCCC3)s2)c2cc(NC3CCOCC3)c(=O)n(C)c2n1 [Example 55] | 50 to 100
6 | Cc1nc(N[C@H](C)c2ccc(-c3ccccc3CN(C)C)cc2)c2cc(N3CCOCC3)c(=O)n(C)c2n1 [Example 56, (R)-4-((1-(2′-((dimethylamino)methyl))-[1,1′-biphenyl]-4-yl)ethyl) amino-2,8 dimethyl-6-morpholinopyridine [2,3-d] opyrimidin-7 (8H)-one] | 10
7 | Cc1nc(N[C@H](C)c2ccc(-c3cnn4c3CN(C)CC4)cc2)c2cc(N3CCOCC3)c(=O)n(C)c2n1 [Example 57] | 50 to 100
8 | Cc1nc(N[C@H](C)c2ccc(-c3cnccc3CN3CCCC3)cc2)c2cc(N3CCOCC3)c(=O)n(C)c2n1 [Example 58] | 50 to 100
9 | Cc1nc(N[C@H](C)c2ccc(-c3ccccc3C3(N)CC3)cc2)c2cc(N3CCOCC3)c(=O)n(C)c2n1 [Example 59] | < 50
10 | Cc1nc(N[C@H](C)c2ccc(-c3cccc4c3CN(C)CC4)cc2)c2cc(N3CCOCC3)c(=O)n(C)c2n1 [Example 60] | 10
11 | Cc1nc(N[C@H](C)c2sc(-c3cc(F)c(F)cc3CN3CCCC3)cc2F)c2cc(N3CCOCC3)c(=O)n(C)c2n1 [Example 62] | 24
12 | Cc1nc(N[C@H](C)c2sc(-c3cnn4c3CN(C)CC4)cc2F)c2cc(N3CCOCC3)c(=O)n(C)c2n1 [Example 63] | > 100
13 | Cc1nc(N[C@H](C)c2sc(-c3cnccc3CN3CCCC3)cc2F)c2cc(N3CCOCC3)c(=O)n(C)c2n1 [Example 64] | 50 to 100
14 | Cc1nc(N[C@H](C)c2sc(-c3cccc4c3CN(C)CC4)cc2F)c2cc(N3CCOCC3)c(=O)n(C)c2n1 [Example 65] | < 50
15 | Cc1nc(N[C@H](C)c2sc(-c3ccccc3C3(N)CC3)cc2F)c2cc(N3CCOCC3)c(=O)n(C)c2n1 [Example 66] | < 50
16 | Cc1nc(N[C@H](C)c2sc(-c3ccccc3CN(C)C)cc2F)c2cc(N3CCOCC3)c(=O)n(C)c2n1 [Example 67] | < 50
17 | Cc1nc(N[C@H](C)c2sc(-c3ccncc3CN3CCCC3)cc2F)c2cc(N3CCOCC3)c(=O)n(C)c2n1 [Example 68] | 50 to 100
18 | Cc1nc(N[C@H](C)c2cc(N)cc(C(F)(F)F)c2)c2cc(N3CCOCC3)c3nccn3c2n1 [Example 69] | 232
19 | Cc1nc(N[C@H](C)c2cc(N)cc(C(F)(F)F)c2)c2cc(N3CCN(C(C)C)CC3)c3nccn3c2n1 [Example 70] | 50 to 100
20 | Cc1nc(N[C@H](C)c2cc(N)cc(C(F)(F)F)c2)c2cc(N3CCN(C4CCCC4)CC3)c3nccn3c2n1 [Example 71] | 166
21 | Cc1nc(N[C@H](C)c2cc(N)cc(C(F)(F)F)c2)c2cc(N3CC4CCC(C3)N4C)c3nccn3c2n1 [Example 72] | 273
22 | Cc1nc(N[C@H](C)c2cc(N)cc(C(F)(F)F)c2)c2cc(N3CC4CCC(C3)N4C(C)C)c3nccn3c2n1 [Example 73] | 199
23 | Cc1nc(N[C@H](C)c2cc(N)cc(C(F)(F)F)c2)c2cc(N3CC4CCC(C3)N4C3CCCC3)c3nccn3c2n1 [Example 74] | 301

Row | Compound | IC50 [nM]
24 | COC1(c2cc3c(N[C@H](C)c4cc(N)cc(C(F)(F)F)c4)nc(C)nc3n3ccnc23)CCOCC1 [Example 75] | < 50
25 | COC1(c2cc3c(N[C@H](C)c4cc(N)cc(C(F)(F)F)c4)nc(C)nc3n3ccnc23)CCN(C(C)=O)CC1 [Example 76] | < 50
26 | COC1(c2cc3c(N[C@H](C)c4cc(N)cc(C(F)(F)F)c4)nc(C)nc3n3ccnc23)CCS(=O)(=O)CC1 [Example 77] | < 50
27 | Cc1nc(N[C@H](C)c2cc(N)cc(C(F)(F)F)c2)c2cc(C3(C#N)CCS(=O)(=O)CC3)c3nccn3c2n1 [Example 78] | < 50
28 | COC1(c2cc3c(N[C@H](C)c4cccc(C(F)(F)F)c4C)nc(C)nc3n3ccnc23)CCOCC1 [Example 79] | < 50
29 | Cc1nc(N[C@H](C)c2cccc(C(F)(F)F)c2C)c2cc(C3(C#N)CCS(=O)(=O)CC3)c3nccn3c2n1 [Example 80] | < 50
30 | COC1(c2cc3c(N[C@H](C)c4cccc(C(F)(F)F)c4C)nc(C)nc3n3ccnc23)CCN(C(C)C)CC1 [Example 81] | < 50
31 | Cc1nc(N[C@H](C)c2cc(N)cc(C(F)(F)F)c2)c2cc(-c3ccc(=O)n(C(C)C)c3)c3nccn3c2n1 [Example 82] | 189
32 | Cc1nc(N[C@H](C)c2cc(N)cc(C(F)(F)F)c2)c2cc(-c3ccc(=O)n(C4CCCC4)c3)c3nccn3c2n1 [Example 83] | 245
33 | Cc1nc(N[C@H](C)c2cc(N)cc(C(F)(F)F)c2)c2cc(-c3ccc(=O)n(CC4CCCC4)c3)c3nccn3c2n1 [Example 84] | 251
34 | CC(=O)N1CCC(O)(c2cc3c(N[C@H](C)c4cc(N)cc(C(F)(F)F)c4)nc(C)nc3n3ccnc23)CC1 [Example 85, (R)-1-(4-(4-((1-(3-amino-5-(trifluoromethyl)phenyl)ethyl)amino)-2-methylimidazole [1′,2′:1,6]pyrido [2,3-d]pyrimidin-6-yl)-4-hydroxypiperidin-1-yl) ethyl-1-one] | 3.5
35 | CC(=O)N1CCC(F)(c2cc3c(N[C@H](C)c4cc(N)cc(C(F)(F)F)c4)nc(C)nc3n3ccnc23)CC1 [Example 86] | < 50
36 | Cc1nc(N[C@H](C)c2cc(N)cc(C(F)(F)F)c2)c2cc(C3(F)CCOCC3)c3nccn3c2n1 [Example 87] | < 50
37 | Cc1nc(N[C@H](C)c2cc(N)cc(C(F)(F)F)c2)c2cc(C3(F)CCS(=O)(=O)CC3)c3nccn3c2n1 [Example 88] | < 50
38 | COC1(c2cc3c(N[C@H](C)c4cc(N)cc(C(F)(F)F)c4)nc(C)nc3n3ccnc23)CCN(C(=O)C(C)C)CC1 [Example 89] | < 50
39 | Cc1nc(N[C@H](C)c2cc(N)cc(C(F)(F)F)c2)c2cc(C3(C#N)CCN(C(=O)C(C)C)CC3)c3nccn3c2n1 [Example 90] | < 50
40 | COC1(c2cc3c(N[C@H](C)c4cc(N)cc(C(F)(F)F)c4)nc(C)nc3n3ccnc23)CC2CCC(C1)N2C(=O)C(C)C (stereo partly drawn) [Example 91] | < 50
41 | COC1(c2cc3c(N[C@H](C)c4cc(N)cc(C(F)(F)F)c4)nc(C)nc3n3ccnc23)CC2CCC(C1)N2C (stereo partly drawn) [Example 92] | < 50
42 | COC1(c2cc3c(N[C@H](C)c4cc(N)cc(C(F)(F)F)c4)nc(C)nc3n3ccnc23)CC2CCC(C1)N2C(C)C (stereo partly drawn) [Example 93] | < 50
43 | Cc1cn2c(n1)c(-c1ccc(=O)n(C)c1)cc1c(N[C@H](C)c3cc(N)cc(C(F)(F)F)c3)nc(C)nc12 [Example 94, (R)-5-(4-((1-(3-amino-5-(trifluoromethyl)phenyl)ethyl)amino)-2,8-dimethylimidazole [1′,2′:1,6]pyrido [2,3-d]pyrimidin-6-yl)-1-methylpyridin-2 (1H)-one] | > 100
44 | Cc1cn2c(n1)c(N1CCOCC1)cc1c(N[C@H](C)c3cc(N)cc(C(F)(F)F)c3)nc(C)nc12 [Example 95, (R)-N-(1-(3-Amino-5-(trifluoromethyl)phenyl)ethyl)-2,8-dimethyl-6-morpholinimidazole [1′,2′:1,6] pyrido [2,3-d] pyrimidin-4-amine] | 50 to 100
45 | COC1(c2cc3c(N[C@H](C)c4cc(N)cc(C(F)(F)F)c4)nc(C)nc3n3cc(C)nc23)CCN(C(C)=O)CC1 [Example 96, (R)-1-(4-(4-((1-(3-amino-5-(trifluoromethyl)phenyl)ethyl)amino)-2,8-dimethylimidazole [1′,2′:1,6]pyrido [2,3-d]pyrimidin-6-yl)-4-methoxypiperidin-1-yl) ethyl-1-one] | < 50
